Assay results taken from the supplement of paper PMC8728848.
The other results are listed elsewhere or left out.

Experiments:
Test in all cases: glycan array binding signal (z-score within array); higher = stronger binding
Conditions in all cases: glycan notation: IUPAC condensed, linker removed
Gal6S(b1-4)Glc = target: Gal6S(b1-4)Glc
Procedure, shortened: (§1)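 The Consortium for Functional Glycomics database supplied 3228 glycan arrays, of which those lacking an available protein sequence were dropped. The binding signal, a within-array Z-score, was averaged across arrays of the same protein sequence and across linkers. Negative scores can be read as non-binding.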

Gal6S(b1-4)Glc6S = target: Gal6S(b1-4)Glc6S
Procedure, shortened: as §1

Gal6S(b1-4)GlcNAc = target: Gal6S(b1-4)GlcNAc
Procedure, shortened: as §1

GalNAc(a1-3)Gal = target: GalNAc(a1-3)Gal
Procedure, shortened: as §1

GalNAc(a1-3)GalNAc = target: GalNAc(a1-3)GalNAc
Procedure, shortened: as §1

[1] = target: GalNAc(b1-3)Gal(a1-4)Gal(b1-4)GlcNAc
Procedure, shortened: as §1

GalNAc(b1-4)GlcNAc = target: GalNAc(b1-4)GlcNAc
Procedure, shortened: as §1

Glc(a1-4)Glc = target: Glc(a1-4)Glc
Procedure, shortened: as §1

Glc(a1-6)Glc(a1-6)Glc = target: Glc(a1-6)Glc(a1-6)Glc
Procedure, shortened: as §1

Glc(b1-4)Glc = target: Glc(b1-4)Glc
Procedure, shortened: as §1

Glc(b1-6)Glc = target: Glc(b1-6)Glc
Procedure, shortened: as §1

GlcA(b1-3)Gal = target: GlcA(b1-3)Gal
Procedure, shortened: as §1

GlcA(b1-6)Gal = target: GlcA(b1-6)Gal
Procedure, shortened: as §1

[2] = target: GlcNAc(a1-3)Gal(b1-4)GlcNAc
Procedure, shortened: as §1

[3] = target: GlcNAc(a1-6)Gal(b1-4)GlcNAc
Procedure, shortened: as §1

[4] = target: GlcNAc(b1-2)Gal(b1-3)GlcNAc
Procedure, shortened: as §1

[5] = target: GlcNAc(b1-2)Man(a1-3)[GlcNAc(b1-2)Man(a1-6)]Man(b1-4)GlcNAc(b1-4)GlcNAc
Procedure, shortened: as §1

GlcNAc(b1-3)Gal = target: GlcNAc(b1-3)Gal
Procedure, shortened: as §1

[6] = target: GlcNAc(b1-3)Gal(b1-3)GalNAc
Procedure, shortened: as §1

GlcNAc(b1-3)Gal(b1-4)Glc = target: GlcNAc(b1-3)Gal(b1-4)Glc
Procedure, shortened: as §1

[7] = target: GlcNAc(b1-3)Gal(b1-4)GlcNAc
Procedure, shortened: as §1

[8] = target: GlcNAc(b1-3)Gal(b1-4)GlcNAc(b1-3)Gal(b1-4)GlcNAc
Procedure, shortened: as §1

GlcNAc(b1-3)GalNAc = target: GlcNAc(b1-3)GalNAc
Procedure, shortened: as §1

[9] = target: GlcNAc(b1-3)[GlcNAc(b1-4)][GlcNAc(b1-6)]GlcNAc
Procedure, shortened: as §1

[10] = target: GlcNAc(b1-3)[GlcNAc(b1-6)]Gal(b1-4)GlcNAc
Procedure, shortened: as §1

[11] = target: GlcNAc(b1-3)[GlcNAc(b1-6)]GlcNAc
Procedure, shortened: as §1

[12] = target: GlcNAc(b1-4)Gal(b1-4)GlcNAc
Procedure, shortened: as §1

[13] = target: GlcNAc(b1-4)GlcNAc(b1-4)GlcNAc
Procedure, shortened: as §1

[14] = target: GlcNAc(b1-4)GlcNAc(b1-4)GlcNAc(b1-4)GlcNAc(b1-4)GlcNAc
Procedure, shortened: as §1

[15] = target: GlcNAc(b1-4)GlcNAc(b1-4)GlcNAc(b1-4)GlcNAc(b1-4)GlcNAc(b1-4)GlcNAc
Procedure, shortened: as §1

[16] = target: GlcNAc(b1-4)[GlcNAc(b1-6)]GalNAc
Procedure, shortened: as §1

[17] = target: GlcNAc(b1-6)Gal(b1-4)GlcNAc
Procedure, shortened: as §1

GlcNAc(b1-6)GalNAc = target: GlcNAc(b1-6)GalNAc
Procedure, shortened: as §1

Kdn(a2-3)Gal(b1-3)GlcNAc = target: Kdn(a2-3)Gal(b1-3)GlcNAc
Procedure, shortened: as §1

Kdn(a2-3)Gal(b1-4)GlcNAc = target: Kdn(a2-3)Gal(b1-4)GlcNAc
Procedure, shortened: as §1

[18] = target: Man(a1-2)Man(a1-2)Man(a1-3)Man
Procedure, shortened: as §1

[19] = target: Man(a1-2)Man(a1-2)Man(a1-3)[Man(a1-2)Man(a1-3)[Man(a1-2)Man(a1-6)]Man(a1-6)]Man(b1-4)GlcNAc(b1-4)GlcNAc
Procedure, shortened: as §1

[20] = target: Man(a1-2)Man(a1-2)Man(a1-3)[Man(a1-2)Man(a1-6)[Man(a1-3)]Man(a1-6)]Man(b1-4)GlcNAc(b1-4)GlcNAc
Procedure, shortened: as §1

[21] = target: Man(a1-2)Man(a1-2)Man(a1-6)[Man(a1-3)]Man
Procedure, shortened: as §1

Man(a1-2)Man(a1-3)Man = target: Man(a1-2)Man(a1-3)Man
Procedure, shortened: as §1

[22] = target: Man(a1-2)Man(a1-3)[Man(a1-2)Man(a1-6)]Man
Procedure, shortened: as §1

[23] = target: Man(a1-2)Man(a1-3)[Man(a1-3)[Man(a1-6)]Man(a1-6)]Man(b1-4)GlcNAc(b1-4)GlcNAc
Procedure, shortened: as §1

[24] = target: Man(a1-2)Man(a1-3)[Man(a1-6)]Man(a1-6)[Man(a1-2)Man(a1-3)]Man(b1-4)GlcNAc(b1-4)GlcNAc
Procedure, shortened: as §1

Man(a1-3)[Man(a1-6)]Man = target: Man(a1-3)[Man(a1-6)]Man
Procedure, shortened: as §1

[25] = target: Man(a1-3)[Man(a1-6)]Man(a1-6)[Man(a1-3)]Man(b1-4)GlcNAc(b1-4)GlcNAc
Procedure, shortened: as §1

[26] = target: Man(a1-3)[Man(a1-6)]Man(b1-4)GlcNAc(b1-4)GlcNAc
Procedure, shortened: as §1

Man(b1-4)GlcNAc = target: Man(b1-4)GlcNAc
Procedure, shortened: as §1

Neu5Ac(a2-3)Gal = target: Neu5Ac(a2-3)Gal
Procedure, shortened: as §1

[27] = target: Neu5Ac(a2-3)Gal(b1-3)GalNAc
Procedure, shortened: as §1

B1: EcCDA (Encephalitazoon cuniculi), Q8SU65 (protein)
chain: MLLCLLYFTSSWCSGSDVPDVCTNSGMIAINFVDGPVRGVTDRILNTLDELGVKATFSFTVNQKAVGNVGQLYRRAVEEGHNVALRVDPSMDEGYQCLSQDALENNVDREIDTIDGLSGTEIRYAAVPICNGQVNSEMYNILTERGVLPVGYTFCPYDYDDPVGEFESMIEGSDPKHHSFIILMHDGQEADTSRLENMVKIGKDKGYRFVNMDECLQGYKGAPGDPELSLRGKGVESIGKGFLPFFLMMLVRLL
Gal6S(b1-4)Glc
  glycan array binding signal (z-score): 0.56
Gal6S(b1-4)Glc6S
  glycan array binding signal (z-score): 0.182
Gal6S(b1-4)GlcNAc
  glycan array binding signal (z-score): -0.092
GalNAc(a1-3)Gal
  glycan array binding signal (z-score): -0.277
GalNAc(a1-3)GalNAc
  glycan array binding signal (z-score): -0.238
[1]
  glycan array binding signal (z-score): 1.6
GalNAc(b1-4)GlcNAc
  glycan array binding signal (z-score): -0.289
Glc(a1-4)Glc
  glycan array binding signal (z-score): -0.197
Glc(a1-6)Glc(a1-6)Glc
  glycan array binding signal (z-score): -0.126
Glc(b1-4)Glc
  glycan array binding signal (z-score): -0.417
Glc(b1-6)Glc
  glycan array binding signal (z-score): -0.497
GlcA(b1-3)Gal
  glycan array binding signal (z-score): -0.333
GlcA(b1-6)Gal
  glycan array binding signal (z-score): -0.32
[2]
  glycan array binding signal (z-score): -0.454
[3]
  glycan array binding signal (z-score): -0.33
[4]
  glycan array binding signal (z-score): -0.418
[5]
  glycan array binding signal (z-score): -0.153
GlcNAc(b1-3)Gal
  glycan array binding signal (z-score): -0.494
[6]
  glycan array binding signal (z-score): 2.65
GlcNAc(b1-3)Gal(b1-4)Glc
  glycan array binding signal (z-score): -0.339
[7]
  glycan array binding signal (z-score): -0.412
[8]
  glycan array binding signal (z-score): 0.29
GlcNAc(b1-3)GalNAc
  glycan array binding signal (z-score): -0.163
[9]
  glycan array binding signal (z-score): -0.197
[10]
  glycan array binding signal (z-score): -0.236
[11]
  glycan array binding signal (z-score): -0.011
[12]
  glycan array binding signal (z-score): 1.2
[13]
  glycan array binding signal (z-score): -0.023
[14]
  glycan array binding signal (z-score): -0.33
[15]
  glycan array binding signal (z-score): -0.405
[16]
  glycan array binding signal (z-score): -0.36
[17]
  glycan array binding signal (z-score): -0.261
GlcNAc(b1-6)GalNAc
  glycan array binding signal (z-score): -0.364
Kdn(a2-3)Gal(b1-3)GlcNAc
  glycan array binding signal (z-score): -0.375
Kdn(a2-3)Gal(b1-4)GlcNAc
  glycan array binding signal (z-score): -0.366
[18]
  glycan array binding signal (z-score): -0.199
[19]
  glycan array binding signal (z-score): -0.442
[20]
  glycan array binding signal (z-score): -0.317
[21]
  glycan array binding signal (z-score): -0.434
Man(a1-2)Man(a1-3)Man
  glycan array binding signal (z-score): 0.039
[22]
  glycan array binding signal (z-score): -0.257
[23]
  glycan array binding signal (z-score): -0.2
[24]
  glycan array binding signal (z-score): 0.183
Man(a1-3)[Man(a1-6)]Man
  glycan array binding signal (z-score): -0.395
[25]
  glycan array binding signal (z-score): -0.34
[26]
  glycan array binding signal (z-score): -0.243
Man(b1-4)GlcNAc
  glycan array binding signal (z-score): -0.374
Neu5Ac(a2-3)Gal
  glycan array binding signal (z-score): 0.077
[27]
  glycan array binding signal (z-score): -0.31
